# Reference: PubChem BioAssay AID493208 (National Center for Advancing Translational Sciences (NCATS), 2011)
# About 340 (0.77%) of roughly 44,000 compounds were called active. About 5% were inconclusive and are not listed. The call rests on the fitted dose curve; in most records, active means well fitted inhibition curve with a large enough effect; inconclusive means small, poorly fitted or top-dose-only effect; inactive means flat fitted curve, though single readings scatter. Some of the results follow.
# Assay: Acumen qHTS Assay for Inhibitors of the mTORC1 Signaling Pathway in MEF (Tsc2-/-, p53-/-) Cells: Sytravon; further: nearly all actives have a fitted effect of over 50% in size
# Settings: phospho-rpS6 immunofluorescence/PI, 24 h; series mostly up to 38.3 µM; activity change, negative = inhibition: at the top concentration
# Text: NIH Molecular Libraries Probe Production Centers Network [MLPCN] NIH Chemical Genomics Center [NCGC] MLPCN Grant: NS059428-01 Assay Submitter (PI): Blenis, John; Hoffman, Greg; Harvard University NCGC Assay Overview: The mammalian target of rapamycin (mTOR) is an intracellular serine/threonine kinase Aberrant regulation of mTOR signaling plays a causative role in a number of human diseases, including cancer, benign tumors such as lymphangioleiomyomatosis (LAM) and Tuberous Sclerosis Complex (TSC), and metabolic diseases such as diabetes and obesity. This project aims to identify inhibitors of ribosomal protein S6 (rpS6) phosphorylation. The phosphorylation of rpS6 is a key event downstream of mTOR activation. The assay uses a phospho-specific antibody of phospho-rpS6 to detect inhibitors of mTOR activation. Mutations in the Tsc1 and Tsc2 genes are the underlying genetic lesions responsible for TSC, causing constitutive activation of the mTORC1 pathway and leading to profound effects on cell metabolism. Aberrant metabolism in cancer has recently received significant attention as a target to develop therapeutic agents in the treatment of cancer.1 As Tsc2-/- cells have lost the ability to respond to energy and growth factor deprivation, these cells are unable to properly down regulate cellular biosynthetic processes in response to metabolic stress, and are thus extremely sensitive to glucose deprivation-induced death.2 A central goal of this project is to explore the unique cell survival and metabolic properties of cells with Tsc1 or Tsc2 by screening for compounds that selectively target the Tsc2-/- MEFs by screening both Tsc2-/- and WT MEF cell lines. We hope to better understand these aspects of TSC physiology in order to exploit them for therapeutic benefit.
# NCGC Acumen Assay Protocol Summary: For quantitative high throughput analysis of mTORC1 signaling, we developed a cell-based assay for immuno-fluorescence based detection of rpS6 phosphorylation on the Acumen Explorer that will be used a platform for the primary small molecule screen. Mouse embryonic fibroblasts (MEFs) are cultured in 1536-well plates using DMEM + 10% FBS. Twenty-four hrs after plating, test compounds (solubilized in DMSO) are delivered and incubated with the cells for 24 hrs at 37 degree Celsius. Following the incubation, media with compound is aspirated and the cells are fixed in 4% paraformaldehyde (PFA) containing PBS + 0.2% TX-100. Next, PFA is aspirated, cells are washed two times with PBS plus 0.2% TX-100 and the cells are blocked for 1 hr at room temperature (blocking buffer: LiCOR Blocking Buffer plus 0.2% TX-100). […] Cells are washed two times with PBS plus 0.2% TX-100, and stained with 10 uM propidium iodide (PI) for 20-25 minutes for cell number measurement (1:500 dilution of Hoescht staining is also added for IN Cell imaging). The plates are scanned on the Acumen Explorer laser scanning instrument (TTP Labtech) using the 488nm laser for simultaneous excitation of the Alexa-488 and PI. […] The normalized phospho-S6 staining is calculated as the ratio of the integrated Alexa 488 intensity divided by the integrated PI intensity for the single concentration rapamycin control (7.5 nM) and DMSO columns. […] Inhibition of the pathway is defined based on the normalized phospho-S6 intensity in rapamycin treated cells. Active cells are defined as those with a normalized phospho-S6 staining above this threshold, and each treatment is reported as the % positive cells in the well, where thresholds are defined by selecting wells with the highest and lowest signal and differentiating between the % non-active and % active populations. In addition to the pathway specific phospho-S6 endpoint, the number of PI stained cells from the Acumen is recorded as a measure of cell viability. The primary screen was performed with a MEF cell line in a defined genetic background, Tsc2-/-, p53-/- cell line stably transfected with an empty vector control (Tsc2-/- MEF).
# Potency means the concentration at half of the fitted maximal effect.
SMILES,"activity change, negative = inhibition",Potency
CCc1ccc(OCC(=O)N2CCN(CCc3ccncc3)CC2)cc1,inactive: 0.218%,–
Cc1ccccc1CN1C(=O)C(C)N=C(c2ccccc2)c2ccccc21 (centres undefined),inactive: -9.86%,–
CCOc1ccc2nc(NC(=O)c3cccn(Cc4ccccc4Cl)c3=O)sc2c1,inactive: -10.7%,–
CCOc1ccc(CN(CCc2ccc3c(c2)OCO3)Cc2ccc(OC)c(Br)c2)cc1,inactive: -5.97%,–
Cc1ccc(C(C)C)c(OCC(=O)N2CCN(CCc3ccncc3)CC2)c1,inactive: -25.1%,–
Cc1ccc(C(=O)Nc2ccccc2)cc1S(=O)(=O)N1CCCC1,inactive: -3.64%,–
Cc1ccccc1-n1c(/C=C/c2ccc(N(C)C)cc2)nc2ccccc2c1=O,inactive: -5.14%,–
O=C(c1ccc2c(c1)N(Cc1ccc(F)cc1)C(=O)c1ccccc1S2)N1CCC2(CC1)OCCO2,inactive: -6.48%,–
COc1ccc(OCC(=O)N2CCN(Cc3ccc(SC)cc3)CC2)cc1,inactive: 0.178%,–
Cc1cccc(Cn2cccc(C(=O)Nc3ccc(F)cc3F)c2=O)c1,inactive: 3.43%,–
Cc1ccc(OCC(=O)N2CCN(CCc3ccncc3)CC2)cc1,inactive: -4.06%,–
CC(C)c1ccc(OCC(=O)N2CCN(CCc3ccccn3)CC2)cc1,inactive: -13.4%,–
COc1ccc(OCC(=O)N2CCN(Cc3cc(=O)n4nc(-c5ccc(OC)cc5)sc4n3)CC2)cc1,inactive: -1.13%,–
COc1cccc(-c2nn3c(=O)cc(CN4CCN(C(=O)COc5ccccc5C)CC4)nc3s2)c1,inactive: 4.49%,–
Cc1ccc(OCC(=O)Nc2ccc(Cl)cc2C(=O)c2ccccc2)cc1C,inactive: 15.9%,–
Cc1nnc(NC(=O)c2cccn(Cc3cccc(F)c3)c2=O)s1,inactive: 2.15%,–
Cc1c(Cl)cccc1NC(=O)c1oc2ccc(S(=O)(=O)N3CCC4(CC3)OCCO4)cc2c1C,–,active: 13.1 µM
Cc1ccc(NC(=O)Cn2cc(C(=O)c3ccccc3)c3ccccc32)c(C)c1,inactive: -1.19%,–
Cc1cccc(CN2C(=O)CN=C(c3ccccc3)c3ccccc32)c1,inactive: -0.185%,–
COc1ccc(-n2c(/C=C/c3cccc(F)c3)nc3ccccc3c2=O)cc1Cl,inactive: 12.5%,–
Cc1cccc(-n2nc(C)c3c2NC(=O)CSC3c2ccccc2Cl)c1 (centres undefined),inactive: -0.0021%,–
CCOc1ccc(CN(CCc2ccc3c(c2)OCO3)Cc2ccc(C)cc2)cc1,inactive: -7.08%,–
CC(C)Cc1nc2cccnc2n1C1CCNCC1,inactive: 3.26%,–
CCCCC12CN3CC(C)(CN(C1)C3c1ccccn1)C2=O (centres undefined),inactive: 6.49%,–
Cc1ccccc1OCC(=O)N1CCN(CCc2ccccn2)CC1,inactive: 3.48%,–

SMILES,"activity change, negative = inhibition",Potency
COc1ccc(NC(=O)CCc2nc(C3=CCN(Cc4cccc(Cl)c4)CC3)no2)c(OC)c1,inactive: 0%,–
O=S1(=O)N(Cc2ccccc2Cl)CCCN1Cc1ccccc1Cl,inactive: -0.129%,–
O=C(Nc1ccc2c(c1)OCO2)c1cccn(Cc2cccc([N+](=O)[O-])c2)c1=O,inactive: 1.63%,–
O=c1c2ccccc2nc(/C=C/c2ccccc2F)n1-c1cccc(O)c1,inactive: -19.5%,–
CCc1nc(SC)ncc1C(=O)Nc1ccc(Cl)cc1C(=O)c1ccccc1,inactive: -3.4%,–
Cc1cccc(-c2nn3c(=O)cc(CN4CCN(C(=O)COc5ccc(Cl)cc5)CC4)nc3s2)c1,inactive: 0%,–
COc1cccc(C2SCC(=O)Nc3c2c(C)nn3-c2ccc(C)c(Cl)c2)c1OC (centres undefined),inactive: -6.59%,–
CN(C)c1ccc(NC(=O)c2sc3nc4c(cc3c2N)N2CCC4CC2)cc1,inactive: 6.14%,–
Cc1ccc(Cn2cccc(C(=O)Nc3cc(C)on3)c2=O)cc1,inactive: -1.46%,–
Cc1c(C(c2ccc(Br)cc2)c2c(O)c3ccccc3oc2=O)c(=O)n(-c2ccccc2)n1C (centres undefined),inactive: 5.57%,–
Cc1ccccc1-n1nc(C)c2c1NC(=O)CSC2c1ccc(Cl)cc1 (centres undefined),inactive: -7.56%,–
COc1ccc(OCC(=O)N2CCN(CCc3ccncc3)CC2)cc1,inactive: 1.09%,–
Cc1ccccc1-n1c(/C=C/c2c(C)[nH]c3ccccc23)nc2ccccc2c1=O,inactive: -25.7%,–
Cc1ccc(Cn2cccc(C(=O)Nc3ccc4c(c3)OCCO4)c2=O)cc1,inactive: 0.319%,–
COc1ccccc1C1SCC(=O)Nc2c1c(C)nn2-c1cccc(C)c1 (centres undefined),inactive: -9.99%,–
Cc1ccc(-c2nc(CN3C(=O)CN=C(c4ccccc4)c4ccccc43)c(C)o2)cc1,inactive: 1.97%,–
CCN(CC)C(=O)c1ccc(NC(=O)c2ccc(-c3nn(C)c(=O)c4ccccc34)cc2)cc1,inactive: 1.08%,–
COc1ccc(Br)cc1C1SCC(=O)Nc2c1c(C)nn2-c1ccccc1C (centres undefined),inactive: -6.21%,–
Cc1ccc(-c2nn3c(=O)cc(CN4CCN(C(=O)COc5ccc(C)c(C)c5)CC4)nc3s2)cc1,inactive: 6.24%,–
CCCC12CN3CC(C)(CN(C1)C3c1c(C)[nH]c(=O)[nH]c1=O)C2=O (centres undefined),inactive: -0.0216%,–
Cc1ccccc1-c1nc(CN2C(=O)CN=C(c3ccccc3)c3ccccc32)c(C)o1,inactive: 0.691%,–
CCc1ccc(-n2nc(C)c3c2NC(=O)CSC3c2ccc(C(=O)OC)cc2)cc1 (centres undefined),inactive: -8.39%,–
COc1ccccc1-c1nn2c(=O)cc(CN3CCN(C(=O)COc4ccccc4Cl)CC3)nc2s1,inactive: 0.211%,–
O=C(Nc1ccc(Br)cc1C(=O)c1ccccc1Cl)c1ccc(Br)cc1,inactive: -3.84%,–
